Data reported in the supplement of paper PMC12217912.
This is one part of the list. The full chains were built here from the parent and the listed change. Inactive controls read about 0.05.

B1: TEV protease; numbered along this chain (parent)
chain: MGESLFKGPRDYNPISSSICHLTNESDGHTTSLYGIGFGPFIITNKHLFRRNNGTLVVQSLHGVFKVKDTTTLQQHLVDGRDMIIIRMPKDFPPFPQKLKFREPQREERICLVTTNFQTKSMSSMVSDTSCTFPSGDGIFWKHWIQTKDGQCGSPLVSTRDGFIVGIHSASNFTNTNNYFTSVPKNFMELLTNQEAQQWVSGWRLNADSVLWGGHKVFMVKPEEPFQPVKEATQL

Variants of: B1
Assay: raw area under fraction-flipped curve 0-4 h after induction (AUC4h, not background-subtracted), DNA-recorder readout of cleavage of the substrate (dimensionless); higher = more cleavage of the substrate by the protease variant
Settings: temperature: 34 °C; time window: 0-4 h after rhamnose induction
Experimental: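 In vivo DNA recorder in E. coli TOP10(DE3) ΔrhaA at 34 °C. Each TEVp single-site mutant (parent TEVp 0) is paired with a single-site variant of the 7-mer TEVs (canonical ENLYFQ|S). The substrate sits between flexible linkers in a Bxb1-sfGFP-TEVs-SsrA fusion, so cleavage stabilises Bxb1 and speeds flipping of a recombination array, read by NGS. The value is the raw area under the fraction-flipped curve over 0-4 h after rhamnose induction (AUC4h), with ≥20 reads per time point. It is not background-subtracted; inactive controls average about 0.047.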
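Further: Bxb1 expression induced with 0.2% (w/v) L-rhamnose at OD600 near 0.5, cultures sampled hourly, flipped fraction per protease–substrate barcode pair counted by paired-end Illumina sequencing.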

Variant | area with substrate ENLAFQS | area with substrate ENLCFQS | area with substrate ENLDFQS | area with substrate ENLEFQS | area with substrate ENLFFQS | area with substrate ENLHFQS | area with substrate ENLIFQS | area with substrate ENLNFQS | area with substrate ENLRFQS | area with substrate ENLSFQS | area with substrate ENLVFQS | area with substrate ENLWFQS | area with substrate ENLGFQS | area with substrate ENLKFQS | area with substrate ENLLFQS | area with substrate ENLPFQS | area with substrate ENLQFQS | area with substrate ENLTFQS | area with substrate ENLMFQS
D27S | 0.0575 | 0.0832 | 0.0333 | 0.0584 | 0.0761 | 0.0684 | 0.0694 | 0.0686 | 0.0657 | 0.0566 | 0.0618 | 0.0739 |  |  |  |  |  |  | 
V67A | 0.0679 |  | 0.0535 |  | 0.0968 | 0.0929 | 0.0785 | 0.063 | 0.0663 |  | 0.0739 | 0.0633 | 0.0657 | 0.08 | 0.0768 | 0.0653 | 0.0618 | 0.0745 | 
V67W | 0.0462 | 0.0768 | 0.0537 |  | 0.074 |  | 0.0771 | 0.0585 |  | 0.0708 |  |  | 0.0694 | 0.0651 | 0.0681 |  | 0.0631 |  | 0.0668
Q59G | 0.068 | 0.0599 | 0.0523 | 0.0479 |  | 0.0678 | 0.0844 | 0.0636 |  |  | 0.0813 | 0.0547 |  | 0.0849 |  | 0.0371 |  |  | 
P40Q | 0.0734 | 0.0793 | 0.0695 |  | 0.0837 | 0.0609 |  |  | 0.07 | 0.0595 |  | 0.0798 | 0.0678 | 0.0807 |  |  |  |  | 0.0742
T55C | 0.0684 |  | 0.0714 | 0.0638 | 0.0707 | 0.0704 | 0.0892 | 0.0538 |  | 0.0597 | 0.0785 | 0.0738 |  | 0.0662 |  | 0.0583 | 0.0573 |  | 0.0908
G28Q | 0.0633 | 0.0598 |  |  | 0.106 | 0.0715 | 0.085 | 0.0705 | 0.0713 | 0.0475 |  |  | 0.0767 | 0.0794 | 0.0758 | 0.0549 |  |  | 
T23E | 0.0657 | 0.0703 | 0.0761 | 0.0824 | 0.0814 | 0.0702 |  | 0.0607 |  | 0.0466 | 0.0902 | 0.0661 |  | 0.0488 | 0.0696 | 0.0628 | 0.05 | 0.0706 | 
N45E | 0.0613 |  | 0.0624 | 0.0588 | 0.0627 | 0.063 |  | 0.0674 |  | 0.0609 |  | 0.0442 | 0.0641 | 0.0612 | 0.0519 | 0.0446 | 0.0811 | 0.0706 | 0.0497
G54K | 0.0623 | 0.0489 | 0.0615 | 0.0674 | 0.0612 | 0.0976 | 0.0647 | 0.0491 |  |  |  |  |  | 0.06 |  | 0.0627 | 0.0547 |  | 
G54A | 0.0548 |  | 0.0635 | 0.0559 | 0.0645 | 0.0906 |  | 0.0585 | 0.0698 |  |  | 0.0615 |  | 0.0626 |  | 0.0634 |  | 0.0691 | 
G54C | 0.0336 |  | 0.0633 | 0.0429 | 0.0693 | 0.0706 |  | 0.0545 |  | 0.0593 | 0.0725 | 0.0528 | 0.0683 | 0.0552 |  | 0.0562 | 0.059 |  | 0.0733
G39F | 0.0325 | 0.0487 | 0.048 | 0.0447 | 0.0355 | 0.0536 | 0.0354 | 0.0647 |  | 0.0409 |  | 0.0455 | 0.0502 | 0.0531 | 0.0157 | 0.0494 | 0.032 | 0.0469 | 
G39L | 0.0286 | 0.0394 | 0.039 | 0.0386 | 0.0483 | 0.0431 |  | 0.0331 |  |  | 0.0473 | 0.0417 |  | 0.0452 | 0.0421 |  | 0.0455 |  | 
G39Y | 0.0413 | 0.0638 | 0.0378 | 0.0343 | 0.0459 | 0.0557 | 0.0512 | 0.0501 |  | 0.0704 |  |  |  | 0.0538 |  |  |  |  | 0.0472
G63R | 0.0628 |  | 0.0683 | 0.0658 | 0.0682 | 0.0373 | 0.0725 | 0.0733 | 0.0724 | 0.0737 |  |  |  | 0.0676 |  |  |  |  | 
G63L | 0.0582 | 0.0821 |  | 0.104 | 0.0756 | 0.0675 | 0.0637 | 0.0585 | 0.0634 | 0.0564 | 0.0778 | 0.0587 | 0.0855 | 0.0765 |  |  | 0.0574 | 0.0417 | 0.0644
G63T | 0.0712 | 0.0675 | 0.0641 | 0.0586 | 0.0831 | 0.064 | 0.103 | 0.0622 |  |  |  | 0.0646 | 0.0775 | 0.0712 |  | 0.0703 |  |  | 0.0628
S26E | 0.0761 |  | 0.0776 | 0.0676 | 0.074 | 0.0603 |  | 0.0676 | 0.0681 |  |  | 0.0466 | 0.061 |  | 0.059 | 0.0414 | 0.0526 | 0.0789 | 0.0502
S26R | 0.0574 | 0.0781 | 0.0484 | 0.0774 | 0.0656 | 0.0582 | 0.0672 | 0.0605 |  |  |  | 0.0529 |  |  | 0.0548 | 0.0677 |  |  | 
S26Q | 0.0595 | 0.0763 | 0.0635 | 0.0563 | 0.0704 | 0.0631 | 0.0769 | 0.0535 | 0.0592 | 0.061 | 0.0525 | 0.0684 | 0.0659 | 0.0618 | 0.0696 | 0.069 | 0.0507 | 0.0597 | 
N53D | 0.0477 | 0.0746 | 0.07 | 0.0678 | 0.0802 |  | 0.0783 |  | 0.079 |  |  |  |  | 0.0799 |  |  | 0.0435 |  | 0.103
N53Q | 0.0637 | 0.0623 | 0.061 | 0.0662 | 0.0725 | 0.062 | 0.069 | 0.061 | 0.0694 | 0.067 | 0.074 |  | 0.0533 | 0.0756 | 0.0623 |  | 0.076 | 0.0799 | 
H62I | 0.0404 | 0.0748 | 0.0342 | 0.061 | 0.131 | 0.0605 | 0.106 | 0.0437 |  |  |  | 0.0666 |  | 0.0662 |  | 0.0698 |  |  | 
H62Y | 0.089 |  | 0.0681 | 0.0499 | 0.0998 |  | 0.093 | 0.0898 | 0.0741 | 0.0726 | 0.0805 | 0.0404 | 0.0586 | 0.0683 | 0.0707 | 0.0563 |  |  | 0.0843
F49Q | 0.0668 | 0.0613 | 0.0612 | 0.0476 | 0.0674 |  |  | 0.0577 | 0.0593 | 0.061 |  | 0.0487 |  | 0.0572 | 0.0493 |  | 0.0662 |  | 
